From the supplement of paper PMC11417369
This is one part of the list.

Tested on: PF3D7_0420300 AP2 domain 1 (GST-tagged)
Assay: gcPBM binding intensity (ln(normalized median fluorescence intensity)); higher = stronger DNA binding
How it was run: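 Using an Agilent 4 × 180k array, primer-extended double-stranded 36-bp intergenic genomic probes and negative controls were exposed for 1 h to GST-fused P. falciparum DNA-binding domains expressed in E. coli. Binding was carried out in 1× PBS with 1% milk, 0.2 mg/ml BSA, 0.5% salmon testes DNA and 0.03% Triton X-100, and protein was detected with Alexa488 anti-GST antibody and a 488 nm scan. Binding intensity is the highest Masliner-normalised natural-log median intensity across replicate spots of either probe orientation.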

Row | Sequence | gcPBM binding intensity (ln)
1 | AATGTGTATATATATACACACACATATATATATTTT [CACACA_site8596] | 9.75
2 | TAGTTTTTTATATATTGTACTTAGAATATATTATAT [XGTACX_site3662] | 9.2
3 | ATATATATAAAATATTATATTAAAAAAAATAAAATA [GTGCAC_negctrl_site87] | 9.08
4 | ATATAAATATATATATGTACATAATATATTATGTTT [XGTACX_site2806] | 9.21
5 | AATTTAACCACTAAAAGTACACACATATATACATAT [XGTACX_site8352] | 9.68
6 | GGACACCTTCAAAACACACATACAAATAAATAGAAA [CACACA_site3305] | 9.45
7 | TTTTTCTTTTTTTCTTTTTTTATAAAACTTAATTGT [CACACA_negctrl_site384] | 9.12
8 | AAAAAAAAAAAAAAATATATATATATATACATACAT [CACACA_negctrl_site317] | 9.15
9 | TATTAATTATATTTATGTACATAATCATATTATTAT [XGTACX_site7938] | 9.37
10 | AGTAACAAAAGAAAAAAATATGCAAACATATATATA [XGTACX_negctrl_site468] | 9.45
11 | TTCATTTTTTGCTTTCAACACACATACAATATATAT [CACACA_site9369] | 9.58
12 | AGAAATATATATATATATATATATATATATATATAT [TGCATGCA_negctrl_site375] | 9.45
13 | ATAAATATCTAGGGTTCACACATTATATATCTGTAT [CACACA_site5702] | 9.36
14 | CGTGAATATATGATATGTACTTATAAAAATTTGTGC [XGTACX_site5480] | 9.26
15 | ACAAAGTTATAATTCTTGCACTTTAAGGTTCATTTA | 9.2
16 | GGTATACACAAGTATACACACATATATATATATATA [CACACA_site9063] | 9.37
17 | TTTTCCTCTTAAAATATACACACTGATTTAAGAAAA [CACACA_site3301] | 8.95
18 | TTTTTTTTTTTTTTTTTTTTTTTTTTGTTCAGGCCT [GTGCAC_negctrl_site143] | 8.54
19 | ACGTAATAAAATAGTTGTACAACTTTTTATAATATA [XGTACX_site4393] | 9.18

Row | Sequence | gcPBM binding intensity (ln)
20 | AAACGATTAATGTGTACACACATAGTTATAAACCTA [CACACA_site2110] | 9.55
21 | TCATAAATATGAAAAAGTACAAAGGTAGATTTTGAA [XGTACX_site4535] | 9.18
22 | TATATATATATTATATGTACGTATGTATGTATATAT [XGTACX_site6451] | 9.39
23 | TCATATATTTTATACATACACACATATATATATTTT [CACACA_site3941] | 9.74
24 | ACGTTATACACAGTACGTACATAACTATCTAAATGT [XGTACX_site5068] | 9.21
25 | TGGAGGTCAGTTCACAGTACCCAGGAAATCTGCGGA [XGTACX_site2556] | 8.75
26 | ATGCATAATATACTCTTACACACCATTTCTATATAC [CACACA_site1461] | 9.78
27 | TTCACTTTTTTTTTTTTTTTTTTTTTTTTTTTTATT [GTGCAC_negctrl_site350] | 9.18
28 | TATAACATAGGACACACACACATACATACACAAAAA [CACACA_site5062] | 10.2
29 | TTTACAACATCAAAATGTACGCATTATTATTATTAA [XGTACX_site3017] | 9
30 | TGTGTATAAATATACACACACATATAAATATTTTAA [CACACA_site7005] | 9.42
31 | TATTTAAAAAATAATACACACATAATATAACAAAAT [CACACA_site3174] | 9.94
32 | ACATATAATATAAATTGTACATATAAATATATTATT [XGTACX_site4268] | 9.24
33 | AAAAGTCTTCAAATTTGTACATATATATATATATAT [XGTACX_site3404] | 9.13
34 | GGTACATACAGACACACACACAAAAAAAAAAAAATA [CACACA_site6844] | 9.88
35 | TTAATATTAATTATATGTACATATAATATATATATA [XGTACX_site1757] | 9.04
36 | ATCTTTTCATATTGCTGTACAAATTATTTTCATTCG [XGTACX_site492] | 9.57
37 | TGTATAAAATTCCATTGTACATATTATTTTACGACA [XGTACX_site7764] | 9.11
38 | GAGAAATGGAGACACACACACATATTATATATATAT [CACACA_site1532] | 9.89

Row | Sequence | gcPBM binding intensity (ln)
39 | ATGTTAAACAAATCTATACACACGTATATGACAAAA [CACACA_site1783] | 9.36
40 | ATTTTGGAAATAATATGTACATATACATAATATATA [XGTACX_site4177] | 9.13
41 | CGAACACAAACACAAACACACATCATATATATATAT [CACACA_site4857] | 9.53
42 | AATATACAAAAAAAAAAAAAAAAAAAAAAGATGGAA [TGCATGCA_negctrl_site550] | 9.28
43 | AGCAAAATGAAATAAATTGGAAAATATTACTGAACG [CACACA_negctrl_site1433] | 9.39
44 | GCAAATCTTATATGAAGTACATATCTTATAAATAAA [XGTACX_site6903] | 8.96
45 | TTTATTATATTTTTTTGTACATATTGATGTATATAA [XGTACX_site6527] | 9.19
46 | TGAATTTACAAAATCATGCACTTAATTACAGAATAA | 9.13
47 | ATAAAAAAAAAAAGAAGTACATGTATTAAAATTTAT [XGTACX_site3927] | 9.5
48 | AACAAAGGATTTATATATACATACATACATACATAA [GTGCAC_negctrl_site469] | 9.37
49 | ATATATAATTTTTACACACGCAATAAATATATATAT [CACACA_site4283] | 9.47
50 | TTTTGGATTGAGGACCTTTTTATAGAATTATGTTTT [TGCATGCA_negctrl_site544] | 9.13
51 | TATATATAATATATATGTACGTATATATATAATATA [XGTACX_site8383] | 9.14
52 | TTAACATAAATATATACACACCAATGATGGCATTTA [CACACA_site4952] | 9.31
53 | GTTTCCTTAATATTCACACACATATATATAATATAT [CACACA_site1856] | 9.78
54 | ATGTTATAAGATTTATGTACACACATATACACACCT [XGTACX_site1316] | 9.75
55 | TTTATTTTCCAAAGGGTGCACATAGTTGAAACGATA | 9.2
56 | AATAAAGCAATAAATACACACATATTTATATTTATA [CACACA_site7390] | 9.56
